According to the supplement of paper PMC8728848:
This is one part of the list.

Assays:
Test in all cases: glycan array binding signal (z-score within array); higher = stronger binding
Details in all cases: glycan notation: IUPAC condensed, linker removed
[1] = target: Neu5Ac(a2-3)Gal(b1-4)GlcNAc(b1-2)[Neu5Ac(a2-3)Gal(b1-4)GlcNAc(b1-4)]Man(a1-3)[GlcNAc(b1-4)][Neu5Ac(a2-3)Gal(b1-4)GlcNAc(b1-4)Man(a1-6)]Man(b1-4)GlcNAc(b1-4)GlcNAc
How it was run: (§1)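 The binding signal is a Z-score computed within each array. Data were drawn from 3228 arrays in the Consortium for Functional Glycomics database, restricted to those with a known protein sequence. Scores were averaged over arrays of the same protein sequence at different concentrations or buffers, and over linkers, and negative values can be taken as non-binding.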

[2] = target: Neu5Ac(a2-3)Gal(b1-4)GlcNAc(b1-2)[Neu5Ac(a2-3)Gal(b1-4)GlcNAc(b1-6)]Man(a1-6)[Neu5Ac(a2-3)Gal(b1-4)GlcNAc(b1-2)Man(a1-3)]Man(b1-4)GlcNAc(b1-4)GlcNAc
How it was run: as §1

[3] = target: Neu5Ac(a2-3)Gal(b1-4)GlcNAc(b1-2)[Neu5Ac(a2-3)Gal(b1-4)GlcNAc(b1-6)]Man(a1-6)[Neu5Ac(a2-3)Gal(b1-4)GlcNAc(b1-2)Man(a1-3)][GlcNAc(b1-4)]Man(b1-4)GlcNAc(b1-4)GlcNAc
How it was run: as §1

[4] = target: Neu5Ac(a2-3)Gal(b1-4)GlcNAc(b1-3)Gal
How it was run: as §1

[5] = target: Neu5Ac(a2-3)Gal(b1-4)GlcNAc(b1-3)Gal(b1-3)GlcNAc
How it was run: as §1

[6] = target: Neu5Ac(a2-3)Gal(b1-4)GlcNAc(b1-3)Gal(b1-4)GlcNAc
How it was run: as §1

[7] = target: Neu5Ac(a2-3)Gal(b1-4)GlcNAc(b1-3)Gal(b1-4)GlcNAc(b1-2)Man(a1-3)[Neu5Ac(a2-3)Gal(b1-4)GlcNAc(b1-3)Gal(b1-4)GlcNAc(b1-2)Man(a1-6)]Man(b1-4)GlcNAc(b1-4)GlcNAc
How it was run: as §1

[8] = target: Neu5Ac(a2-3)Gal(b1-4)GlcNAc(b1-3)Gal(b1-4)GlcNAc(b1-3)Gal(b1-4)GlcNAc
How it was run: as §1

[9] = target: Neu5Ac(a2-3)Gal(b1-4)GlcNAc(b1-3)Gal(b1-4)GlcNAc(b1-3)Gal(b1-4)GlcNAc(b1-2)Man(a1-3)[Neu5Ac(a2-3)Gal(b1-4)GlcNAc(b1-3)Gal(b1-4)GlcNAc(b1-3)Gal(b1-4)GlcNAc(b1-2)Man(a1-6)]GalNAc
How it was run: as §1

[10] = target: Neu5Ac(a2-3)Gal(b1-4)GlcNAc(b1-3)Gal(b1-4)GlcNAc(b1-3)GalNAc
How it was run: as §1

[11] = target: Neu5Ac(a2-3)Gal(b1-4)GlcNAc(b1-3)Gal(b1-4)GlcNAc(b1-3)[Neu5Ac(a2-3)Gal(b1-4)GlcNAc(b1-3)Gal(b1-4)GlcNAc(b1-6)]GalNAc
How it was run: as §1

[12] = target: Neu5Ac(a2-3)Gal(b1-4)GlcNAc(b1-3)Gal(b1-4)GlcNAc(b1-6)[Gal(b1-3)]GalNAc
How it was run: as §1

[13] = target: Neu5Ac(a2-3)Gal(b1-4)GlcNAc(b1-3)Gal(b1-4)[Fuc(a1-3)]GlcNAc
How it was run: as §1

[14] = target: Neu5Ac(a2-3)Gal(b1-4)GlcNAc(b1-3)GalNAc
How it was run: as §1

[15] = target: Neu5Ac(a2-3)Gal(b1-4)GlcNAc(b1-3)[Neu5Ac(a2-3)Gal(b1-4)GlcNAc(b1-6)]GalNAc
How it was run: as §1

[16] = target: Neu5Ac(a2-3)Gal(b1-4)GlcNAc(b1-6)GalNAc
How it was run: as §1

[17] = target: Neu5Ac(a2-3)Gal(b1-4)GlcNAc(b1-6)[Gal(b1-3)]GalNAc
How it was run: as §1

[18] = target: Neu5Ac(a2-3)Gal(b1-4)GlcNAc(b1-6)[Neu5Ac(a2-3)Gal(b1-3)]GalNAc
How it was run: as §1

[19] = target: Neu5Ac(a2-3)Gal(b1-4)GlcNAc6S
How it was run: as §1

[20] = target: Neu5Ac(a2-3)Gal(b1-4)[Fuc(a1-3)]GlcNAc
How it was run: as §1

[21] = target: Neu5Ac(a2-3)Gal(b1-4)[Fuc(a1-3)]GlcNAc(b1-2)Man
How it was run: as §1

[22] = target: Neu5Ac(a2-3)Gal(b1-4)[Fuc(a1-3)]GlcNAc(b1-3)Gal
How it was run: as §1

[23] = target: Neu5Ac(a2-3)Gal(b1-4)[Fuc(a1-3)]GlcNAc(b1-3)Gal(b1-4)GlcNAc
How it was run: as §1

[24] = target: Neu5Ac(a2-3)Gal(b1-4)[Fuc(a1-3)]GlcNAc(b1-3)Gal(b1-4)[Fuc(a1-3)]GlcNAc(b1-3)Gal(b1-4)[Fuc(a1-3)]GlcNAc
How it was run: as §1

[25] = target: Neu5Ac(a2-3)Gal(b1-4)[Fuc(a1-3)]GlcNAc(b1-3)GalNAc
How it was run: as §1

[26] = target: Neu5Ac(a2-3)Gal(b1-4)[Fuc(a1-3)]GlcNAc(b1-6)[Gal(b1-3)]GalNAc
How it was run: as §1

[27] = target: Neu5Ac(a2-3)Gal(b1-4)[Fuc(a1-3)]GlcNAc(b1-6)[Neu5Ac(a2-3)Gal(b1-3)]GalNAc
How it was run: as §1

[28] = target: Neu5Ac(a2-3)Gal(b1-4)[Fuc(a1-3)]GlcNAc6S
How it was run: as §1

[29] = target: Neu5Ac(a2-3)Gal6S(b1-4)GlcNAc
How it was run: as §1

[30] = target: Neu5Ac(a2-3)Gal6S(b1-4)[Fuc(a1-3)]GlcNAc
How it was run: as §1

[31] = target: Neu5Ac(a2-3)GalNAc
How it was run: as §1

[32] = target: Neu5Ac(a2-3)GalNAc(b1-4)GlcNAc
How it was run: as §1

[33] = target: Neu5Ac(a2-3)[GalNAc(b1-4)]Gal(b1-4)Glc
How it was run: as §1

[34] = target: Neu5Ac(a2-3)[GalNAc(b1-4)]Gal(b1-4)GlcNAc
How it was run: as §1

[35] = target: Neu5Ac(a2-3)[GalNAc(b1-4)]Gal(b1-4)GlcNAc(b1-3)GalNAc
How it was run: as §1

[36] = target: Neu5Ac(a2-3)[Neu5Ac(a2-6)]GalNAc
How it was run: as §1

[37] = target: Neu5Ac(a2-6)Gal
How it was run: as §1

B1: GS7807H-bfa-490-18-490 (Bacteroides fragilis) (protein)
chain: GNLEEMNIDPDNATQTHPKLLLTQICMNAFKRGTDGMYATKKVIQADGESADQYYKWTRGSFGYYDNLRNVQKMGEEAERVNAPVYTALTKFFRAYYFYELTLRFGDIPYSQALKGEKEEIYTPEYDAQEDVFAGILQELREADEILANDASVIDGDIIYNGNSTQWRKLINSFRLKVLMTLSNHTTVGNINIASEFKNIATNSPLMNSLADNGQLVYLDQQGNRYPQFNAQWSGYYMDDTFIQRMRERRDPRLFIFSAQTNKGKTEGKPIDDFSSYEGGDPAAPYSDAIIKVSEGTISPINDRFRTDPIVEPTMLMGYAELQQILAEAVVRGWISGNAQTYYEKGIRASFSFYETHAKDYAGYLNENAVAQYLKEPLVDFTQASGTEEQIERIIMQKYLVTFYQGNWDSFYEQLRTGYPDFRRPAGTEIPKRWMYPQGEYDNNGTNVETAITRQFGAGNDKINQATWWQKKS
glycan array binding signal (z-score) [1]: -0.302
glycan array binding signal (z-score) [2]: 0.482
glycan array binding signal (z-score) [3]: 0.115
glycan array binding signal (z-score) [4]: 0.517
glycan array binding signal (z-score) [5]: -0.423
glycan array binding signal (z-score) [6]: -0.498
glycan array binding signal (z-score) [7]: 1.09
glycan array binding signal (z-score) [8]: 0.175
glycan array binding signal (z-score) [9]: 9.02
glycan array binding signal (z-score) [10]: -0.386
glycan array binding signal (z-score) [11]: 0.655
glycan array binding signal (z-score) [12]: -0.551
glycan array binding signal (z-score) [13]: -0.682
glycan array binding signal (z-score) [14]: -0.583
glycan array binding signal (z-score) [15]: -0.793
glycan array binding signal (z-score) [16]: -0.497
glycan array binding signal (z-score) [17]: -0.693
glycan array binding signal (z-score) [18]: -0.804
glycan array binding signal (z-score) [19]: -0.051
glycan array binding signal (z-score) [20]: -0.511
glycan array binding signal (z-score) [21]: -0.282
glycan array binding signal (z-score) [22]: 0.009
glycan array binding signal (z-score) [23]: 0.422
glycan array binding signal (z-score) [24]: -0.314
glycan array binding signal (z-score) [25]: 5.66
glycan array binding signal (z-score) [26]: 0.01
glycan array binding signal (z-score) [27]: 0.488
glycan array binding signal (z-score) [28]: 0.272
glycan array binding signal (z-score) [29]: -0.649
glycan array binding signal (z-score) [30]: -0.29
glycan array binding signal (z-score) [31]: 0.279
glycan array binding signal (z-score) [32]: -0.486
glycan array binding signal (z-score) [33]: -0.665
glycan array binding signal (z-score) [34]: -0.535
glycan array binding signal (z-score) [35]: -0.159
glycan array binding signal (z-score) [36]: 0.163
glycan array binding signal (z-score) [37]: -0.384
